The list shows a part of the results. Many values rest on one well or one pass, so single values are uncertain.
The molecules below were run on A2058 (assay: cell count relative to DMSO control; melanoma cells; higher = more viable cells). Details: library dose: standard library concentration; 72 h.
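Further: cells treated in 1,536-well plates, then fixed and DAPI-stained, with nuclei counted from automated high-throughput microscope images.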

Compound | cell count
COCC[n+]1c2c(n(Cc3cnccn3)c1C)C(=O)c1ccccc1C2=O + O=c1cc(-c2cccc3c2Sc2ccccc2S3)oc(N2CCOCC2)c1 [KU55933] (first compound 0.002 µM, partner dose 5 µM) | 18.2%
C#Cc1cccc(Nc2ncnc3cc(OCCOC)c(OCCOC)cc23)c1 [erlotinib] + c1cc(-c2cnn3cc(-c4ccc(OCCN5CCCCC5)cc4)cnc23)ccn1 [Dorsomorphin] (first compound 4 µM, partner dose 2 µM) | 58.2%
Nc1cccc2c1CN(C1CCC(=O)NC1=O)C2=O (stereo unspecified) [lenalidomide] + O=S(=O)(c1ccccc1)N(CC(F)(F)F)c1ccc(C(O)(C(F)(F)F)C(F)(F)F)cc1 [T0901317] (first compound 5 µM, partner dose 7 µM) | 95.6%
COCC[n+]1c2c(n(Cc3cnccn3)c1C)C(=O)c1ccccc1C2=O + CCCCCCCCCCCC1=C(O)C(=O)C=C(O)C1=O [Embelin] (first compound 0.002 µM, partner dose 6 µM) | 33.2%
OCc1c[nH]c2ccccc12 [Indole-3-carbinol] + COc1cc2ncnc(Nc3ccc(Oc4ccccc4)cc3)c2cc1OC [SrcI1] (first compound 4 µM, partner dose 10 µM) | 89.4%
C#Cc1cccc(Nc2ncnc3cc(OCCOC)c(OCCOC)cc23)c1 [erlotinib] + CCN(CC)CCCCNc1ncc2cc(-c3cc(OC)cc(OC)c3)c(NC(=O)NC(C)(C)C)nc2n1 [PD173074] (first compound 4 µM, partner dose 0.5 µM) | 99.9%
Cn1c(Nc2ccc(C(F)(F)F)cc2)nc2cc(Oc3ccnc(-c4ncc(C(F)(F)F)[nH]4)c3)ccc21 + Oc1nc(-c2ccc(C(F)(F)F)cc2)nc2c1CSCC2 [XAV939] (first compound 0.4 µM, partner dose 10 µM) | 52.3%
C#Cc1cccc(Nc2ncnc3cc(OCCOC)c(OCCOC)cc23)c1 [erlotinib] + COc1cc(N2CCC(N3CCN(C)CC3)CC2)ccc1Nc1ncc(Cl)c(Nc2ccccc2S(=O)(=O)C(C)C)n1 [NVP-TAE684] (first compound 4 µM, partner dose 0.4 µM) | 62.5%
COCC[n+]1c2c(n(Cc3cnccn3)c1C)C(=O)c1ccccc1C2=O + COc1ccc(-c2ccc3c(N4CCOCC4)nc(N4C[C@@H](C)O[C@@H](C)C4)nc3n2)cc1CO [KU0063794] (first compound 0.002 µM, partner dose 0.1 µM) | 21.1%
O=C(CCCCCCC(=O)Nc1ccccc1)NO [vorinostat] + Oc1cc(-c2nc(-c3ccccc3)[nH]c2-c2ccncc2)ccc1Cl [L779450] (first compound 0.4 µM, partner dose 1 µM) | 99.3%
C#Cc1cccc(Nc2ncnc3cc(OCCOC)c(OCCOC)cc23)c1 [erlotinib] + N#Cc1c(O)c2c(-c3ccc(-c4ccccc4O)cc3)csc2[nH]c1=O [A769662] (first compound 4 µM, partner dose 10 µM) | 95.5%
Cn1c(Nc2ccc(C(F)(F)F)cc2)nc2cc(Oc3ccnc(-c4ncc(C(F)(F)F)[nH]4)c3)ccc21 + O=C1NC(=O)/C(=C/c2ccc(-c3ccc(F)cc3O)o2)S1 [AS252424] (first compound 0.4 µM, partner dose 5 µM) | 73.6%
OCc1c[nH]c2ccccc12 [Indole-3-carbinol] + Oc1cc(-c2nc(-c3ccccc3)[nH]c2-c2ccncc2)ccc1Cl [L779450] (first compound 4 µM, partner dose 1 µM) | 96.8%
COCC[n+]1c2c(n(Cc3cnccn3)c1C)C(=O)c1ccccc1C2=O + Oc1cc(-c2nc(-c3ccccc3)[nH]c2-c2ccncc2)ccc1Cl [L779450] (first compound 0.002 µM, partner dose 1 µM) | 13.9%
Cn1c(Nc2ccc(C(F)(F)F)cc2)nc2cc(Oc3ccnc(-c4ncc(C(F)(F)F)[nH]4)c3)ccc21 + Cn1cc(/C=C2\C(=O)Nc3cccnc32)c2ccccc21 [GW441756] (first compound 0.4 µM, partner dose 2 µM) | 68.3%
O=C(CCCCCCC(=O)Nc1ccccc1)NO [vorinostat] + COc1ccc(-c2ccc3c(N4CCOCC4)nc(N4C[C@@H](C)O[C@@H](C)C4)nc3n2)cc1CO [KU0063794] (first compound 0.4 µM, partner dose 0.1 µM) | 98.4%

From the supplement of paper PMC4604168 (melanoma cell lines)
